Values joined by “and” are separate entries in the source; they are usually repeats but may differ in a detail not shown here. Identical values can stand only once. Hit rate of the full screen: of about 100,000 compounds, about 250 (0.25%) were called active. This list was built around the results that the source calls inconclusive (neither active nor inactive); the mix of calls is not that of the screen. Calls come from the whole dose curve; as a rule, active = well fitted inhibition curve with a large enough effect; inconclusive = small, poorly fitted or top-dose-only effect; inactive = flat fitted curve, though single readings scatter. Potencies of inconclusive entries are doubtful fits and often do not repeat.
What follows are compounds tested against Alanine aminotransferase 2 (Homo sapiens) (UniProt Q8TD30) (assay: Primary qHTS assay for inhibitors of Glutamate pyruvate transaminase 2 (GPT2)). Details: Recombinant GPT2, coupled pyruvate oxidase/HRP Amplex Red fluorescence; activity change, negative = inhibition: at 57.7 µM (top of the series) unless noted; series mostly up to 57.7 µM.
Chain of UniProt Q8TD30 (Q8TD30 whole entry, looked up): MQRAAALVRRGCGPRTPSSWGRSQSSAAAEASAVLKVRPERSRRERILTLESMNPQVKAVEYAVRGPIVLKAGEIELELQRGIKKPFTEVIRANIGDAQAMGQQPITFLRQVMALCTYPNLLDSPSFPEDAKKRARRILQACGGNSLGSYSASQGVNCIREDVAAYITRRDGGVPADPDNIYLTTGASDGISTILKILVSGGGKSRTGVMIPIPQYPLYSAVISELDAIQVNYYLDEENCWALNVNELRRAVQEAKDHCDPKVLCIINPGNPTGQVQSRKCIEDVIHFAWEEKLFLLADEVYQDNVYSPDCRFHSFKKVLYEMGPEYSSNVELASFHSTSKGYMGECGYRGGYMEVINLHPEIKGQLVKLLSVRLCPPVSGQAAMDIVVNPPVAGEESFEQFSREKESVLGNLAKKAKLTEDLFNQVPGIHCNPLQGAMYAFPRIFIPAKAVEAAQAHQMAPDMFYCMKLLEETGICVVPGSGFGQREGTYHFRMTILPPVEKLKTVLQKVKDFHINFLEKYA
Summary of the method: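 Fluorescence of coupled pyruvate oxidase/HRP/Amplex Red system (50uM Amplex, 30 min, dark) reports pyruvate formed by GPT2. Enzyme reaction: 10ng/uL GPT2, 2mM L-alanine, 250uM a-KG, 30 min room temperature, pH 7.5; 50uM AOA control.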
% is set by controls: 0 for no effect and ±100 for the full control effect; potency is the fitted concentration of half-maximal effect; tags give direction and shape of the fitted curve.
Note: nearly all actives have a fitted effect of over 60% in size.

SMILES	Potency	activity change, negative = inhibition	outcome
CC(C)(C)c1ccc(C(=O)Nc2nc3c(s2)C[C@@H]2[C@](C)(CO)[C@H](O)CC[C@@]2(C)[C@@H]3CC(=O)N2CCC(C(N)=O)CC2)cc1	inconclusive: 2.82 µM [inhibitor, full curve, poor fit]	–	–
Cn1ccnc1CNCC1(COc2cccnc2)C[C@@H](O)[C@@H](O)C1 (stereo partly drawn)	inconclusive: 3.55 µM [inhibitor, partial curve, poor fit]	–	–
CCOC(=O)C1CCN(C(=O)C2(c3ccc(NS(C)(=O)=O)cc3)CCCCC2)CC1	inconclusive: 39.8 µM [inhibitor, single point]	–	–
CC(=O)c1[nH]c(C)c(C(=O)N2CCC3(CC2)[C@H](O)C[C@@H]3OCCO)c1C	–	inactive: -9.03%	–
Cc1ncsc1CN1C[C@@H](NC(=O)c2cccnc2)C[C@H]1CO	inconclusive: 7.08 µM [inhibitor, single point]	–	–
NC(=O)CNC(=O)C1=C[C@@H](NC(=O)c2cccc(F)c2)[C@@H](O)[C@H](O)C1	inconclusive: 6.31 µM [inhibitor, partial curve, poor fit]	–	–
O=C(Nc1ccccc1)N1CCCC(c2nn(-c3ccccc3)c(=O)[nH]2)C1 (stereo not drawn)	inconclusive: 0.708 µM [inhibitor, full curve, poor fit]	–	–
CCCC(=O)N1CCN(C2CCN(CCC(C)C)C2=O)CC1 (stereo not drawn)	–	inactive: 4.08%	–
Cc1ccc(C(=O)N2CCC(N3CCOCC3=O)CC2)cc1	inconclusive: 44.7 µM [inhibitor, single point]	–	–
COc1ccc(OC)c(S(=O)(=O)N2CC(CNC(=O)C3CC3)C3(CCCCC3)C2)c1 (stereo not drawn)	–	–	inactive
CS(=O)(=O)N1CCCN(C(=O)NCCc2ccccc2)CCNC(=O)CC1c1ccccc1 (stereo not drawn)	inconclusive: 8.91 µM [inhibitor, partial curve]	–	–
O=C(Cc1ccccn1)NC1CCN(Cc2ccc(-c3ccsc3)cc2)C1 (stereo not drawn)	–	inactive: -34.2%	–
CN(C)CC[C@H](c1ccc(Cl)cc1)c1ccccn1	inconclusive: 0.0054 µM [inhibitor, full curve, poor fit]	–	–
C#CCNC(=O)C1CCCN(c2nccc(Nc3ccccc3F)n2)C1 (stereo not drawn)	–	inactive: -4.41%	–
CN(C)Cc1nnc(C2CC(NC(=O)c3cc4ncccn4n3)C2)n1C (stereo not drawn)	inactive	–	–
O=C(COc1ccccc1)N1CCCN(c2cc(-c3ccc(Cl)cc3)[nH]n2)CC1	inconclusive: 14.1 µM [inhibitor, partial curve, poor fit]	–	–
C[C@@H]1CC(=O)NN=C1c1ccc(NN=C(C#N)C#N)cc1	inconclusive: 3.98 µM [inhibitor, single point]	–	–
Cc1nn(-c2ccc(C(F)(F)F)cc2)c(C)c1[C@@H]1C=C[C@@H](NC(=O)NC(C)C)C1	inconclusive: 0.891 µM [inhibitor, full curve, poor fit]	–	–
Cc1cccc(C)c1CN1CC2(COCC1=O)CN(c1ccc(C(F)(F)F)cn1)C2	–	inactive: -3.11% [at 88.5 µM]	–
O=C(NCC1CCCCC1)c1cccnc1N1CC2CC(C1)[C@H]1CCCC(=O)N1C2 (stereo partly drawn)	–	–	inactive
Cc1c(CN(C)C(=O)c2cc(COc3ccccc3F)[nH]n2)cnn1C	inconclusive: 17.8 µM [inhibitor, partial curve]	–	–

SMILES	Potency	activity change, negative = inhibition	outcome
C=CCNC(=O)N[C@H]1CCN(C(=O)CC(C)(C)C)[C@@H]1C(=O)N[C@@H](C(=O)OC)C(C)C	inconclusive: 56.2 µM [inhibitor, single point]	–	–
O=c1cc(N2CCOCC2)oc2c(NCc3ccncc3)nccc12	inconclusive: 6.31 µM [inhibitor, full curve, poor fit]	–	–
CN1CCN(c2ccc3ncc(Nc4ccccc4-c4ccccc4)n3n2)CC1	inconclusive: 35.5 µM [inhibitor, single point]	–	–
CC(C)NC(=O)N[C@H]1C[C@H]2C(=O)NC[C@@H](CCC(=O)N3CCCC3)N2C1	inconclusive: 44.7 µM [inhibitor, single point]	–	–
COc1ccccc1OCCNC(=O)CCC[C@H]1NC[C@@H]2C[C@H]1CN(Cc1ccccc1)C2	inconclusive: 6.31 µM [inhibitor, single point]	–	–
O=C1CCCN1CC1CCN(C(=O)c2ccc(N3CCC(CO)C3)nc2)CC1 (stereo not drawn)	–	inactive: 4.73%	–
O=C(NCCN1CCOCC1)C1CCCCc2nnc(-c3ccccc3)n21 (stereo not drawn)	inconclusive: 35.5 µM [inhibitor, single point]	–	–
OC1(CNCc2cccnc2-n2cncn2)CCNC1 (stereo not drawn)	inconclusive: 39.8 µM [inhibitor, partial curve, poor fit]	–	–
CCCCCCCC/C=C\CCCCCCCC(=O)NCc1ccc(O)c(OC)c1	inconclusive: 2.82 µM [inhibitor, partial curve, poor fit]	–	–
Cc1ccc(C(=O)NC2CCN(c3cc(-c4cccs4)[nH]n3)CC2)c(C)c1	–	–	inactive
O=C(O)CCc1cc2n(n1)CCCN(C(=O)c1cc3c([nH]c1=O)CCC3)C2	inconclusive: 0.708 µM [inhibitor, full curve, poor fit]	–	–
CS(=O)(=O)CC(O)c1cc2n(n1)CCN(c1cncc(C(N)=O)n1)C2 (stereo not drawn)	inconclusive: 3.55 µM [inhibitor, partial curve, poor fit]	–	–
Cn1nccc1OCc1cn2c(=O)n(C)cc(-c3ccccc3F)c2n1	inconclusive: 56.2 µM [inhibitor, single point]	–	–
C=CCNC(=O)CCc1c(C)nn(-c2ccc(F)cc2)c1Oc1ccccc1F	inconclusive: 39.8 µM [inhibitor, single point]	–	–
COc1ccc(-c2onc(C)c2C(=O)NCc2cccc(Cl)c2)cc1	inconclusive: 39.8 µM [inhibitor, single point]	–	–
O=C1OC2(CCN(C(=O)c3ccco3)CC2)CN1CCOc1ccccc1	inconclusive: 39.8 µM [inhibitor, single point]	–	–
COc1cc(N(C)CCN(C)C)c(N)cc1Nc1nccc(-c2cn(C)c3ccccc23)n1	inconclusive: 28.2 µM [inhibitor, partial curve]	–	–
O=C1NC2(CCN(Cc3cccnc3)CC2)Oc2ccccc21	inconclusive: 50.1 µM [inhibitor, single point]	–	–
CS(=O)(=O)c1ccc([C@@H](O)[C@@H](CO)NC(=O)C(Cl)Cl)cc1	inconclusive: 43.2 µM [inhibitor, single point]	–	–
COC1C(=O)N(C2CCN(C(=O)Cc3c[nH]c4ccccc34)CC2)C12CCOCC2 (stereo not drawn)	–	–	inactive
CC(C)c1nncn1C1CCN(S(=O)(=O)c2ccc(Br)cc2)CC1	–	–	inactive

SMILES	Potency	activity change, negative = inhibition	outcome
O=C1c2c(nc(COc3ccc(F)cc3F)n2Cc2ccccc2)NCCN1CCOc1ccccc1	–	inactive: -10.2%	–
O=C(Cn1ccn2nc(-c3ccc(F)cc3)c(CO)c2c1=O)Nc1ccc2c(c1)CCC2	inconclusive: 7.08 µM [inhibitor, single point]	–	–
C[S+](=O)([O-])c1ccc(-c2cnc3n[nH]c(-c4ccc5c(c4)OCO5)c3n2)cc1	inconclusive: 7.94 µM [inhibitor, full curve, poor fit]	–	–
Cc1ccc(C(=O)NC2CCN(c3cc(-c4ccc(F)cc4)[nH]n3)C2)cc1 (stereo not drawn)	inconclusive: 10 µM [inhibitor, partial curve, poor fit]	–	–
COc1ccc([C@H]2C[C@@H](O)[C@@H](O)[C@@H]2NC(=O)c2ccc3c(c2)OCCO3)cc1	inconclusive: 5.62 µM [inhibitor, full curve, poor fit]	–	–
COc1cc(OC)c(OC)cc1CN1CCC(O)(CN2CCCC2)CC1	inconclusive: 14.1 µM [inhibitor, partial curve, poor fit]	–	–
COc1cccc2nc(-c3cccs3)nc(NN3C(=O)C=C(C)C3=O)c12	inactive	–	–
Cc1cnc(Nc2ccc(N3CCN(C)CC3)cc2)nc1Nc1cccc(S(=O)(=O)NC(C)(C)C)c1	active: 19.3 µM	–	–
CCOCCNC(=O)CNC(=O)c1cccc(-c2ccc(SC)cc2)c1	inconclusive: 2 µM [inhibitor, partial curve, poor fit]	–	–
Cc1ccccc1CN1CC2(COCC1=O)CN(c1ccc(C(F)(F)F)cn1)C2	inconclusive: 44.7 µM [inhibitor, partial curve, poor fit]	–	–
O=C(c1ccco1)N1CCC(Nc2cccnc2)C1 (stereo not drawn)	inconclusive: 39.8 µM [inhibitor, single point]	–	–
CC(C)CNC(=O)c1cc(-c2ccc(F)cc2)c2nncn2n1	–	–	inactive
O=C(c1ccco1)N1CCCCCC1c1nc(C2CC2)no1 (stereo not drawn)	inconclusive: 3.16 µM [inhibitor, full curve]	–	–
CCn1ncc(CN2CCCC(C(=O)N3CCN(c4ccccn4)CC3)CCNC(=O)CC2)c1C (stereo not drawn)	–	inactive: 0.275%	–
CCCNC(=O)N(C1CCOCC1)C1CCN(C(=O)c2cc(Cl)ccc2OC)CC1	–	–	inactive
COc1ccccc1C1C(C#N)=C(N)Oc2n[nH]c(C)c21 (stereo not drawn)	inconclusive: 28.2 µM [inhibitor, partial curve, poor fit]	–	–
COc1ccc(C(=O)N2C[C@@H]3CC[C@H](C2)N(Cc2cscn2)C3=O)o1	inconclusive: 31.6 µM [inhibitor, single point]	–	–
COC(=O)c1ccccc1S(=O)(=O)N1CCC2(CCCNC2)C1 (stereo not drawn)	inconclusive: 39.8 µM [inhibitor, single point]	–	–
NC1(c2ccc(-c3nc4ccn5c(=O)[nH]nc5c4cc3-c3ccccc3)cc2)CCC1	inconclusive: 15.3 µM [inhibitor, single point] and inconclusive: 39.8 µM [inhibitor, partial curve, poor fit]	–	–
CN(C)[C@@H]1CN(Cc2ccsc2)CC[C@@H]1CNC(=O)C1CC1	–	–	inactive
CC1(CN2CCC(n3c(=O)[nH]c4ccccc43)CC2)OCc2ccccc2-n2cccc21 (stereo not drawn)	inconclusive: 15.3 µM [inhibitor, single point]	–	–

Source: PubChem BioAssay AID1671188 (National Center for Advancing Translational Sciences (NCATS), 2021)
